In all, about 310,000 compounds went through this assay and about 14,000 (4.5%) showed an effect of 50% or more. Effects have a minus sign here. The list shows a part of the results.
The compounds below were run against human ether-à-go-go-related gene (hERG) potassium channel (human, UniProt Q12809) (assay: primary screen, population patch clamp on CHO cells stably expressing hERG).
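Note: peak tail current of the secondary pulse compared with the same well before compound.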

human ether-à-go-go-related gene (hERG) potassium channel, sequence (Q12809 whole entry, looked up): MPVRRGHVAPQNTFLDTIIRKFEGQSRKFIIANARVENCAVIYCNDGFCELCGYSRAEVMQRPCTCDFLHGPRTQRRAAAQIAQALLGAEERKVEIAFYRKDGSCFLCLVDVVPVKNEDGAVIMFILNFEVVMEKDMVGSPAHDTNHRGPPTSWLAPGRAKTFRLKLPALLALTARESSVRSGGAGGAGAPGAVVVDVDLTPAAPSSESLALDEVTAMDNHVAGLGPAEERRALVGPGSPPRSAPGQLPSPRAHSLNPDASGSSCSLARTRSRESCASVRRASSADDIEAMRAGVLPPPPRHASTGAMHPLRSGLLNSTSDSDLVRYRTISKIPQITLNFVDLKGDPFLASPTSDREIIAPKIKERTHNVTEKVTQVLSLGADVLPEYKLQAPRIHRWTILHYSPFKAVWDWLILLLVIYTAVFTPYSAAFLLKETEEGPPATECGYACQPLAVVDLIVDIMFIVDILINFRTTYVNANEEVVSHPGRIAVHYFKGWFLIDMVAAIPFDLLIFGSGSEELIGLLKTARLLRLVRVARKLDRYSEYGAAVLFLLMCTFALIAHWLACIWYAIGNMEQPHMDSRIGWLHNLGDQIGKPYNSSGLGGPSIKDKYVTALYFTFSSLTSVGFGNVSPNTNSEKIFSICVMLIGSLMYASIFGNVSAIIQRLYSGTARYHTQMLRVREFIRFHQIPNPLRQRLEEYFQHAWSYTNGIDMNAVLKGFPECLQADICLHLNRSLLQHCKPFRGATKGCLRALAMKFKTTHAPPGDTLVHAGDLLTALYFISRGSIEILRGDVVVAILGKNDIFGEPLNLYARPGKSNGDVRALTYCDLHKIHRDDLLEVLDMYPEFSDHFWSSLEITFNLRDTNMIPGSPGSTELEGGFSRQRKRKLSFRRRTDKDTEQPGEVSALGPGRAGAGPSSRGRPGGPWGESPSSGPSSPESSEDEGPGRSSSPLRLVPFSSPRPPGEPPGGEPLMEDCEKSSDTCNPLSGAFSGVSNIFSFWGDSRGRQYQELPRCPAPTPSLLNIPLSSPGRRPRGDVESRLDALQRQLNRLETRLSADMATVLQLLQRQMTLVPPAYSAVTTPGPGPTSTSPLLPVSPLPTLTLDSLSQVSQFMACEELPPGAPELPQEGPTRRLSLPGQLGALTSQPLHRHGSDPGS

SMILES | hERG current change (%, negative = inhibition) at 10uM
COC(=O)c1ccc(/C=C/c2ccc3cccc(OC)c3n2)cc1 | -4.59%
Cn1cc(C=O)c2cc(F)ccc21 | 19.9%
CCOc1ccc(S(=O)(=O)NC2CCCC2)cc1 | 16%
Cc1c(N(C)S(=O)(=O)c2cccc(C(=O)NCC3CCCO3)c2)c(=O)n(-c2ccccc2)n1C (centres unmarked) | -12%
CN(C)C(CNC(=O)c1c(F)cccc1Cl)c1ccco1 (centres unmarked) | 26.7%
O=C(Nc1nnc(-c2ccco2)o1)c1ccc(Cl)s1 | 8.23%
CCN(CC)P(=O)(Nc1ccc([N+](=O)[O-])cc1)c1c(C)nn(CCC#N)c1NC(=O)c1ccc(Cl)cc1 (centres unmarked) | -56.9%
ON=C1c2ccccc2-c2ccccc21 | 21.4%
O=C(Nc1c(C(=O)O)[nH]c2ccc(F)cc12)c1cccc(C(F)(F)F)c1 | -11.1%
Cc1onc(-c2c(Cl)cccc2Cl)c1C(=O)N1CCN(Cc2ccccc2)CC1 | -8.32%
Cc1nn(-c2ccccc2)c(NC(=O)c2ccccc2)c1Br | -1.17%
CC(C)CC1C(C#N)=C(N)SC(N)=C1C#N | 15.9%
CC(=O)N1CCC(N(C(=O)Nc2ccc(C)c(C)c2)C2CCCC2)CC1 | -31.2%
Nc1nonc1-n1nnc(C(=O)N/N=C/c2cc(Cl)ccc2O)c1CN1CCCCCC1 | -1.16%
Cn1c(-c2ccc(Cl)nc2)nc2ccccc21 | 5.18%
COc1ccc(CCNc2nnc(Sc3nnnn3-c3ccccc3)s2)cc1OC | -37.6%
CC(=O)Nc1sc(/C(C#N)=C\c2cccc(Cl)c2)nc1-c1ccc(C)cc1 | 4.68%
CC(C)=CCC/C(C)=C/CCC(C)NCCN1CCNCC1 (centres unmarked) | -9.44%
COc1ccccc1N1CCN(Cc2ccc(SC)cc2)CC1.O=C(O)C(=O)O | -72.9%

SMILES | hERG current change (%, negative = inhibition) at 10uM
CN(C)c1nc(NCc2ccccc2)nc(N/N=C/c2cccc(Br)c2)n1 | 29.7%
O=C(NCCSCc1ccccc1)c1ccc(F)cc1 | -12.4%
COC(=O)C1(C(F)(F)F)N=C2Sc3ccccc3N2C(N2CCOCC2)=N1 (centres unmarked) | 14%
NC(=O)c1nsc(C(=O)N(c2ccc(Cl)cc2)C(C(=O)NCC2CCCO2)c2cccs2)c1N (centres unmarked) | 11.4%
O=C(COC(=O)Cc1ccc(F)cc1)Nc1ccc2[nH]c(=O)[nH]c2c1 | 10.8%
Cc1ccccc1OCC(=O)Nc1cccc(S(=O)(=O)NC2=NCCCCC2)c1 | -7.89%
CC(C)CN(C(=O)C1=NN(c2ccccc2)C(=O)CC1)c1c(N)n(Cc2ccccc2)c(=O)[nH]c1=O | 9.29%
CC(C)/C(C=O)=C(/NC1CCCCC1)c1ccccc1 | 12.8%
O=C(Nc1nc2c(s1)CCCC2)c1nn(Cc2ccccc2)c(=O)c2ccccc12 | -5.38%
COc1ccc(NC(=O)c2c(C)cc(=O)oc2C)c(OC)c1 | 17.6%
Cc1ccc(S(=O)(=O)N2CCN(c3nc4ccccc4nc3-n3nc(C)cc3C)CC2)cc1 | -6.79%
CCc1ccc(NC(=O)C2=CC=CN3CCS(=O)(=O)N=C23)cc1 | -24.9%
CCCCC(NC(=O)COc1cc2c(c3oc(=O)cc(C)c13)CCC(C)(C)O2)C(=O)O (centres unmarked) | 7.13%
Cc1cc2c(cc1S(=O)(=O)N(C)c1ccccc1)n(C)c(=O)n2C | 1.73%
CCOC(=O)C1=C(C)NC2=C(C(=O)C(C(=O)OCC)C(c3ccco3)C2)C1c1ccccn1 (centres unmarked) | -7.73%
COC(=O)c1ccc(CNC(=O)c2ccc(OC)c(S(=O)(=O)NC3CCCC3)c2)cc1 | -17.3%
CCN(CC)c1ccc(/C=N/Nc2ccc(C)cc2)c(O)c1.Cl | 11.5%
O=S(=O)(c1cccs1)N1CN(C2CCCCC2)c2nc3ccccc3nc21 | -1.72%
Cc1ccc(SCc2nnc(N)s2)cc1 | -4.47%

SMILES | hERG current change (%, negative = inhibition) at 10uM
O=C1/C(=C/C=C/c2ccco2)SC(=S)N1NS(=O)(=O)c1ccccc1 | 2.71%
CC(=O)NCCOC(=O)Nc1ccncc1 | 8.58%
O=C(CCn1c(=O)[nH]c2ccsc2c1=O)N(CCc1ccccc1)Cc1ccccc1 | -28.9%
CCC(CO)n1cnnc1-c1ccncc1 (centres unmarked) | 20.9%
Cc1nn(-c2ccccc2)nc1CNC(=O)C1CCC1 | 2.73%
S=C1NC[C@H](Cc2cccc3ccccc23)N1CC1CCCCC1 | 10.3%
COc1ccc(OC)c(CCNC(=O)C(C)n2nc(C)c3c(C)n(-c4ccc(C)cc4)nc3c2=O)c1 (centres unmarked) | -53.2%
COc1ccc(C(=O)NCC(=O)NCc2cc(=O)n(C)c(=O)n2C)cc1 | 8.17%
COc1ccc(CNC(=O)C2CCC(=O)N2C(C)C)c(OC)c1 (centres unmarked) | 4.1%
CCOC(CCn1c(SCC(=O)Nc2cc(C)on2)nc2ccccc2c1=O)OCC | 11.2%
CC1CCc2c(sc3ncnc(N4CCOCC4)c23)C1 (centres unmarked) | -16.6%
Cc1cc(C(=O)OCC(=O)N2CC(C)OC(C)C2)c(C)n1-c1ccccc1 (centres unmarked) | -20.4%
CCc1nnc(SCC(=O)Nc2ccccc2Cl)nc1CC | 2.44%
c1ccc(-c2noc(CN3CCN(C(c4ccccc4)c4ccccc4)CC3)n2)cc1 | -0.736%
CC(=O)NCc1nc2ccccc2n1C(C)C | 6.51%
Cc1cc([N+](=O)[O-])nn1CC(=O)NNC(=S)Nc1ccc(Cl)cc1 | 20.8%
COC(=O)C1C(c2ccc(OC)cc2)NC(=O)NC1(O)C(F)(F)Cl (centres unmarked) | 18.6%
CC(=O)c1ccc(NC(=O)C2CCCN(S(=O)(=O)c3cccc4nonc34)C2)cc1 (centres unmarked) | 14.2%
